Assay results: the BET-seq Pho4 binding data (Le et al. 2018)
Some of the results follow. The energies were worked out here from pooled read counts, against the library average; single values are noisy.

Each sequence was assayed against T1, Pho4 (S. cerevisiae) (UniProt P07270) (assay: relative binding free energy (BET-seq); higher = weaker binding). Conditions: reference: library average.
T1 sequence: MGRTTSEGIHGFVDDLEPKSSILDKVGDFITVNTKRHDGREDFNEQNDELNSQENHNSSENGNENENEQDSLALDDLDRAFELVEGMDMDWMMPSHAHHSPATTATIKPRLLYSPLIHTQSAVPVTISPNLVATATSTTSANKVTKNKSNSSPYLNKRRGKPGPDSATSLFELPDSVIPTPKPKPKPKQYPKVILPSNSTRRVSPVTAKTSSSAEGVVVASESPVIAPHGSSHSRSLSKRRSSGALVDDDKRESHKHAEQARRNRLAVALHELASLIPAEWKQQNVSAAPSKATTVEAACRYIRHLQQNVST

Sequence	relative binding free energy
GATCACACGTGGTTGT	0.28 kcal/mol
TGTCACACGTGATTTT	0.2 kcal/mol
TGGGACACGTGGATGT	0.06 kcal/mol
CGATGCACGTGATTGG	0.23 kcal/mol
ATTAGCACGTGCGATT	-0.01 kcal/mol
GTAAACACGTGGGTAT	-0.02 kcal/mol
CTTGGCACGTGGATTT	-0.12 kcal/mol
ATAGGCACGTGGTTTG	-0.05 kcal/mol
AGTAGCACGTGTTTTT	-0.01 kcal/mol
TGCGTCACGTGGGCGG	-0.05 kcal/mol
GTTGCCACGTGATGGT	0.22 kcal/mol
TTATTCACGTGTGATA	0.3 kcal/mol
ATCCTCACGTGGAGGG	0.33 kcal/mol
TCGTTCACGTGGGTGT	0.17 kcal/mol
GGGAACACGTGGGGCA	-0.05 kcal/mol
GGAGGCACGTGCGAAG	-0.05 kcal/mol
TGGGTCACGTGTATGA	0.15 kcal/mol
AGGGGCACGTGGAGGC	-0.13 kcal/mol
ACTTGCACGTGGTCGG	-0.14 kcal/mol
GGCCGCACGTGGGGGA	-0.24 kcal/mol
ACTGGCACGTGTATTT	0.14 kcal/mol
CAGGGCACGTGGTGTG	-0.18 kcal/mol
GGTTGCACGTGGCAGT	0.05 kcal/mol
GGAGGCACGTGTAATA	0.14 kcal/mol
TGAGTCACGTGGTTAG	0.12 kcal/mol
AACTGCACGTGTGGAT	0.05 kcal/mol

Sequence	relative binding free energy
TTCAGCACGTGGTATA	-0.13 kcal/mol
AGTGCCACGTGTGCGG	-0.11 kcal/mol
TGATTCACGTGGTTAT	0.17 kcal/mol
GTTGCCACGTGTTTGT	-0.23 kcal/mol
AGATACACGTGTGGGG	0.09 kcal/mol
GGAATCACGTGGACGT	0.2 kcal/mol
TAGTACACGTGCAGGG	0.09 kcal/mol
GTATCCACGTGGAGTG	0.03 kcal/mol
TCTGCCACGTGGGGGG	-0.24 kcal/mol
TGTGACACGTGTGCCT	0.02 kcal/mol
GGTATCACGTGTCAGG	0.14 kcal/mol
TTTGACACGTGGACGG	-0.1 kcal/mol
TCGTCCACGTGGGAGT	-0.01 kcal/mol
TGTCGCACGTGTTCGT	0.02 kcal/mol
TTTATCACGTGTTTAC	0.11 kcal/mol
TCCGTCACGTGGTGTA	0.15 kcal/mol
TTAAGCACGTGTCGGG	-0.06 kcal/mol
TAATTCACGTGATGGG	0.47 kcal/mol
AGGTTCACGTGGATTG	0.24 kcal/mol
TGGCACACGTGATGTT	0.03 kcal/mol
ACGATCACGTGGGGGC	0.12 kcal/mol
AGGCTCACGTGTAGTT	0.22 kcal/mol
AGTTTCACGTGTATGA	0.29 kcal/mol
GGTACCACGTGGGAGG	-0.08 kcal/mol
ACGGACACGTGTGGAG	0.08 kcal/mol
GTGGGCACGTGGACTG	-0.12 kcal/mol

Sequence	relative binding free energy
CTTTGCACGTGTGTAG	-0.06 kcal/mol
TTAAACACGTGTAGAA	0.22 kcal/mol
GGTATCACGTGCCTGT	0.15 kcal/mol
TGTTTCACGTGAGAAA	0.2 kcal/mol
AAAGGCACGTGAAGAG	0.22 kcal/mol
AGAGACACGTGGGTCG	-0.11 kcal/mol
GGTGACACGTGTGGCC	0.15 kcal/mol
AGGAGCACGTGTTTGC	-0.03 kcal/mol
AGGTGCACGTGCCAGT	-0.1 kcal/mol
ATTAGCACGTGAATGG	0.12 kcal/mol
TCATACACGTGGGGGC	0.06 kcal/mol
TGATACACGTGATGTA	0.01 kcal/mol
TTTAGCACGTGCCAGG	-0.05 kcal/mol
AATGGCACGTGTCGGA	-0.03 kcal/mol
GTTGTCACGTGACGAT	0.36 kcal/mol
TTTTGCACGTGTAGTG	0.07 kcal/mol
ATGTTCACGTGAGGTA	0.23 kcal/mol
AGTGTCACGTGGTGGA	-0.04 kcal/mol
TCTATCACGTGGGTAG	-0.11 kcal/mol
ATTGGCACGTGTGGAC	0.05 kcal/mol
TATTCCACGTGTGATG	0.15 kcal/mol
GTATACACGTGGTCGT	0.07 kcal/mol
CTTCTCACGTGTGGTT	0.24 kcal/mol
TTTGCCACGTGTATTA	0.06 kcal/mol
TTGCACACGTGGGAGT	0.07 kcal/mol
GATGTCACGTGGGTGT	-0.07 kcal/mol

Sequence	relative binding free energy
CAGTGCACGTGGGAGG	-0.16 kcal/mol
GTGTTCACGTGGTGCT	0.28 kcal/mol
TTATACACGTGAGGAA	0.23 kcal/mol
AATGACACGTGTTGGG	0.12 kcal/mol
AATGGCACGTGTAGAG	-0.07 kcal/mol
GCTCGCACGTGAAGGG	0.2 kcal/mol
GTAGGCACGTGGCGTA	-0.2 kcal/mol
TGTCTCACGTGTGTGA	0.06 kcal/mol
GAGGACACGTGCGGGC	0.05 kcal/mol
CAGAACACGTGGGGGG	-0.12 kcal/mol
TGTAGCACGTGGCTAA	-0.05 kcal/mol
ATATGCACGTGAGAGG	0.23 kcal/mol
TGTTTCACGTGAATGC	0.35 kcal/mol
GTAGGCACGTGTCAGG	-0.08 kcal/mol
GGAGTCACGTGTAGAT	0.31 kcal/mol
CCGTTCACGTGGTTTT	0.16 kcal/mol
TGTGACACGTGATTTA	0.12 kcal/mol
CCGTGCACGTGGTTGG	-0.1 kcal/mol
TTGAACACGTGTAAGT	0.12 kcal/mol
TGTGCCACGTGAGAGG	0.2 kcal/mol
CAGTGCACGTGGTATG	-0.1 kcal/mol
TCTGGCACGTGGTAGC	-0.09 kcal/mol
TGTGACACGTGCTTGT	-0.07 kcal/mol
TGAGACACGTGTATTT	0.05 kcal/mol
GTTGGCACGTGGGATA	-0.16 kcal/mol
TATGACACGTGTGTAG	-0.13 kcal/mol

Sequence	relative binding free energy
TGCGACACGTGGGGCG	-0.25 kcal/mol
ATTGGCACGTGTGAGT	-0.02 kcal/mol
GAGGGCACGTGTGACG	0.08 kcal/mol
GGGGACACGTGGCTTT	-0.06 kcal/mol
TGTGTCACGTGGGACG	0 kcal/mol
AGGGACACGTGGGTAT	-0.01 kcal/mol
TCGTTCACGTGTGTGC	0.29 kcal/mol
ATGTTCACGTGTATGA	0.3 kcal/mol
GAAAGCACGTGTGGAT	0.1 kcal/mol
TTAAGCACGTGGGAAT	-0.19 kcal/mol
GTCATCACGTGTGTTA	0.15 kcal/mol
AGTTTCACGTGAGGCT	0.35 kcal/mol
TGTTACACGTGTAATC	0.25 kcal/mol
GTTCACACGTGGTTTT	0.17 kcal/mol
AGTGACACGTGTTTCG	0.19 kcal/mol
ATTGTCACGTGAGTTC	0.24 kcal/mol
TTAGGCACGTGCGTTA	-0.15 kcal/mol
ATCGTCACGTGTACGG	0.29 kcal/mol
GAGCGCACGTGTTGGT	0.01 kcal/mol
CTTATCACGTGTTTGG	0.05 kcal/mol
TTGGGCACGTGGCGAA	-0.24 kcal/mol
ACTAGCACGTGGGAGT	-0.12 kcal/mol
TACGACACGTGGTAGT	-0.11 kcal/mol
TGTGACACGTGAGAGA	0.24 kcal/mol
GGTTTCACGTGGGTTA	0.21 kcal/mol
TGGCGCACGTGTGCAT	-0.1 kcal/mol

Sequence	relative binding free energy
TAAAGCACGTGTTGTT	-0.03 kcal/mol
AGGACCACGTGGGTGT	-0.24 kcal/mol
TTAATCACGTGGTGGC	-0.03 kcal/mol
TGGCTCACGTGGTGGA	0.18 kcal/mol
GTCGGCACGTGAAATG	0.22 kcal/mol
GGTTGCACGTGGTTGG	0.03 kcal/mol
TTAAACACGTGTTTGA	-0.09 kcal/mol
GGTTACACGTGGGTAG	0.07 kcal/mol
GCATTCACGTGCGGTG	0.21 kcal/mol
TTAGGCACGTGGAAAT	0.18 kcal/mol
TAGTTCACGTGGGGTA	0.23 kcal/mol
AGAGACACGTGGGCTT	0.03 kcal/mol
TGTGGCACGTGAGGCA	0.2 kcal/mol
GTATCCACGTGTGAGT	0.23 kcal/mol
CGGTCCACGTGGTGTG	-0.07 kcal/mol
TAGTACACGTGGTTTA	0.15 kcal/mol
TATAGCACGTGGGAAG	-0.22 kcal/mol
AAATGCACGTGGTTTG	-0.08 kcal/mol
TGGACCACGTGGGGTG	-0.22 kcal/mol
TGTAACACGTGTAATT	0.16 kcal/mol
GGAATCACGTGGCGTT	0.17 kcal/mol
ATCTTCACGTGTTTTG	0.33 kcal/mol
GGTTCCACGTGTTGGT	0.14 kcal/mol
ATGGTCACGTGAAATG	0.26 kcal/mol
GGGTTCACGTGTTGTT	0.33 kcal/mol
TGATACACGTGTCGAT	0.14 kcal/mol

Sequence	relative binding free energy
TGGGACACGTGGTAAA	-0.04 kcal/mol
CGTGGCACGTGCGGAG	-0.17 kcal/mol
CCTGGCACGTGGTGTG	-0.14 kcal/mol
CTGCGCACGTGGTATG	-0.2 kcal/mol
GGCTCCACGTGAGTGG	0.22 kcal/mol
TCTTGCACGTGTTGAT	0.03 kcal/mol
TGAATCACGTGGGCGG	0.11 kcal/mol
CGGGACACGTGTGTGA	-0.01 kcal/mol
AGGGCCACGTGTGTAG	-0.14 kcal/mol
TAGAGCACGTGGTAGA	-0.38 kcal/mol
GGGCACACGTGAGGTA	0.16 kcal/mol
TAATGCACGTGAGTGA	0 kcal/mol
TATTACACGTGAGTCT	0.4 kcal/mol
CTCATCACGTGTGGGT	0.15 kcal/mol
AGATACACGTGCTGGT	-0.09 kcal/mol
GCGTGCACGTGCGGGA	0.02 kcal/mol
GTTAACACGTGGCGTA	0.02 kcal/mol
TGATACACGTGTGTAG	0.1 kcal/mol
AGTAGCACGTGCATTG	-0.08 kcal/mol
GATAACACGTGTTTTT	0.18 kcal/mol
ATTTTCACGTGGGGCC	0.18 kcal/mol
CATATCACGTGGGGTA	-0.15 kcal/mol
GGAGGCACGTGCGCGG	-0.27 kcal/mol
GGTGTCACGTGTTTCT	0.18 kcal/mol
TTTGGCACGTGGGCCT	-0.24 kcal/mol
TGAGGCACGTGAGAAT	0.1 kcal/mol

Sequence	relative binding free energy
GGTCGCACGTGCATTG	0.14 kcal/mol
GTAGGCACGTGCTGGT	-0.11 kcal/mol
GGGAACACGTGGGACG	-0.02 kcal/mol
TTATGCACGTGATATA	-0.07 kcal/mol
TGGGGCACGTGCTTGA	-0.2 kcal/mol
TTCGGCACGTGCGATG	-0.01 kcal/mol
CCGTACACGTGGGGGA	0 kcal/mol
TTGGCCACGTGGGAAT	-0.11 kcal/mol
AGTAGCACGTGAATTT	0.15 kcal/mol
GGAGGCACGTGACAGT	-0.05 kcal/mol
TTGTGCACGTGGCATG	-0.13 kcal/mol
TCAAGCACGTGGCGTT	-0.01 kcal/mol
AGAGGCACGTGAGGAA	0.07 kcal/mol
CGTTTCACGTGACTGG	0.3 kcal/mol
GATAACACGTGTGTAT	0.13 kcal/mol
GGGTGCACGTGTGGCG	0.16 kcal/mol
TGTAGCACGTGAAGGC	0.09 kcal/mol
TGCGGCACGTGGATGA	-0.08 kcal/mol
AGTAACACGTGATTTG	0.13 kcal/mol
TGGGTCACGTGTTTCA	0 kcal/mol
AGGCGCACGTGGAATG	0.05 kcal/mol
GCTGCCACGTGTTGTT	-0.04 kcal/mol
GAAGTCACGTGTTTTA	0.04 kcal/mol
CTGATCACGTGGTGGC	0.13 kcal/mol
GTTGCCACGTGAGCGG	0.15 kcal/mol
ACTATCACGTGGTTTA	0.19 kcal/mol

Sequence	relative binding free energy
TTTTTCACGTGATCTA	0.27 kcal/mol
TGGCGCACGTGGTTTT	-0.16 kcal/mol
CGGTCCACGTGGGGGG	-0.18 kcal/mol
TTACTCACGTGGCGTT	0.16 kcal/mol
TAGGTCACGTGTGCTG	0.07 kcal/mol
TTTTGCACGTGATTCG	0.01 kcal/mol
TGTGTCACGTGCCTGA	0 kcal/mol
GGTGTCACGTGGACTT	0.02 kcal/mol
CTGCTCACGTGTGTTG	0.25 kcal/mol
TAGTACACGTGATGTG	0.17 kcal/mol
GGCAGCACGTGGGCGT	-0.16 kcal/mol
GTTCACACGTGAATTT	0.48 kcal/mol
ACGCTCACGTGTTGGT	0.23 kcal/mol
TGGTGCACGTGTTACG	-0.1 kcal/mol
CTGGGCACGTGTGCGA	-0.02 kcal/mol
CGGTACACGTGGGCGA	0.08 kcal/mol
ATAGTCACGTGGAGGA	0.12 kcal/mol
AGAGTCACGTGGGCGA	-0.07 kcal/mol
ATTGGCACGTGTTGTG	-0.09 kcal/mol
ATAGGCACGTGTTGCG	-0.06 kcal/mol
TCTGCCACGTGTGGGG	-0.1 kcal/mol
TAAGGCACGTGAGTCT	0.01 kcal/mol
